Source: publication PMC6919601, “Identification of Plasmodium dipeptidyl aminopeptidase allosteric inhibitors by high throughput screening” (PLoS ONE, 2019)
In all, about 110,000 compounds went through this assay and about 230 (0.21%) showed an effect of 50% or more. This is one part of the list.

Biological target: DPAP1 (Plasmodium falciparum, UniProt Q8IIJ9)
Assay: primary screen, percent inhibition; read by cleavage of a fluorogenic dipeptide substrate; higher = more effect of the substance
Set-up: species or system P. falciparum D10 trophozoite lysates; single well
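Also: 30 min substrate incubation versus DMSO and 10 µM JCP410 controls.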

DPAP1, sequence (Q8IIJ9 whole entry, looked up): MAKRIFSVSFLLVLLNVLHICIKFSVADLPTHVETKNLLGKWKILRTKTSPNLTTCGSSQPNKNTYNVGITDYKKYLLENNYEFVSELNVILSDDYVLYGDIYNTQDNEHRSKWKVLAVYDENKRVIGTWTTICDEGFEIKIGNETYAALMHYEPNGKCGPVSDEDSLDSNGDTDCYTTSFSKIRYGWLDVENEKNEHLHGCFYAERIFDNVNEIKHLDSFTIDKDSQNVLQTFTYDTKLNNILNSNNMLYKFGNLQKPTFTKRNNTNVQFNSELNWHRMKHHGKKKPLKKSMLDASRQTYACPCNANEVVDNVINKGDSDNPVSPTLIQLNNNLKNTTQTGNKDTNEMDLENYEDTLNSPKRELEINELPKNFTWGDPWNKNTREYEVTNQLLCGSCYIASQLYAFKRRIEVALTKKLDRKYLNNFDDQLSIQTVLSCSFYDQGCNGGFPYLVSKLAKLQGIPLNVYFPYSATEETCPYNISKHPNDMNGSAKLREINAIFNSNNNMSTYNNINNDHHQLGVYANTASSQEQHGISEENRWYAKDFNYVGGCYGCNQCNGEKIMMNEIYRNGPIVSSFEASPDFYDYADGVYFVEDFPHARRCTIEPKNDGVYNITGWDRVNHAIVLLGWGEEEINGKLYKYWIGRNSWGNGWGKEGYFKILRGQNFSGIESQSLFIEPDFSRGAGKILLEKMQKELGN

SMILES	% Inhibition @ 10 uM [%]
CCc1c(O)n(C(C)CC)c(SC)nc1=O (stereo not drawn)	5.56
Cc1ccc(CCNC(=O)C2CCN(S(=O)(=O)N3CCC4(CC3)OCCO4)CC2)cc1	-2.99
CCc1c(C)sc(NC(=O)c2ccc(C)o2)c1C(N)=O	0.163
CCN1CCN(Cc2c(F)cccc2Cl)CC1	3.68
CC(C)NC(=O)Nc1cccc(Cl)c1	-7.57
COCCCNC(=O)Cn1nc(C)n2c(cc3occc32)c1=O	-2
O=C(c1csc2c1CCCC2)N1CCOCC1	0.392
COc1ccc2[nH]c3c(=O)n(CCCCCC(=O)NC(C)C)c(=S)[nH]c3c2c1	-2.16
C=CCc1cc(C2C3=C(O)CCCC3=NC3=C2C(=O)CCC3)cc(OC)c1O (stereo not drawn)	-1.06
CC1CCCN(S(=O)(=O)c2cc(Cl)ccc2Cl)C1 (stereo not drawn)	3.47
CCn1ncc(C2=NOC(C(=O)NCCc3ccccc3)C2)c1C (stereo not drawn)	-4.85
COc1cccc(-c2cc(C(=O)N3CCN(C(=O)c4cc(OC)c(OC)c(OC)c4)CC3)[nH]n2)c1	5.15
CCC(C)NC(=O)Cn1c(-c2ccccc2)cc(C(C)=O)c1C (stereo not drawn)	7.56
COc1ccc(N(CC(=O)Nc2ccccc2C)S(=O)(=O)c2ccccc2)cc1Cl	-1.95
CCN(CC)S(=O)(=O)c1nnc(NC(=O)C2CCCCC2)s1	-5.37
CC1CN(Cc2nc3c(c(=O)n(C)c(=O)n3C)n2CCCc2ccccc2)CC(C)O1 (stereo not drawn)	3.63
Cn1c2ccccc2c2cnn(CC(=O)O)c(=O)c21	3.24
Cn1c(=O)c2c(nc(N3CCN(c4ccccn4)CC3)n2Cc2ccccc2Cl)n(C)c1=O	-3.53
Cc1cc(C=C2C(=O)N(C)C(=O)N(C)C2=O)c(C)n1-c1ccc(OCc2ccccc2F)cc1	5
CC(C)(C)c1ccc(CN(C(=O)c2cc(=O)c3cc(Cl)ccc3o2)C2CCS(=O)(=O)C2)cc1 (stereo not drawn)	6.56
Cc1ccc(OCC(=O)Nc2cccc(O)c2)c(C)c1	-1.42
CCOC(=O)N1CCC(NC(=O)C2CCN(S(=O)(=O)c3cccc4cccnc34)CC2)CC1	0.208
COc1ccc(-c2cn3c(n2)sc2cc(C(=O)NCc4ccc(F)cc4)ccc23)cc1	-2.67
O=C(NCc1ccccc1Cl)C1CCC(CNS(=O)(=O)c2ccccc2)CC1 (stereo not drawn)	-4.53
Cc1ccc(S(=O)(=O)/N=C2\C=C(NCc3ccccc3)C(=O)c3ccccc32)c(C)c1	-3.33
CCOc1ccc2[nH]c(C(=O)O)c(CCNC(C)=O)c2c1	6.43
COc1ccccc1CNc1nc2c(-c3ccccc3)nnn2c2ccccc12	-6.52
